# Data published in paper PMC4237671 (Anesthesiology, 2014).
# Assay: Pharmacokinetics after single bolus followed by 2-h infusion
# Settings: n = 4 dogs
Compound,Plasma concentration immediately before the infusion ended,Plasma concentration 300 min after the infusion ended,Plasma concentration 30 min after the infusion ended,Plasma concentration 60 min after the infusion ended,Cmax (parent drug),t1/2 (parent drug)
CC(c1ccccc1)n1cncc1C(=O)O (stereo not drawn) [Etomidate Metabolite],"1,680 ± 250 ng/ml",–,–,–,–,–
"CCOC(=O)c1cncn1[C@H](C)c1ccccc1 [Etomidate, reference compound]","2,050 ± 1,090 ng/ml",37 ± 24 ng/mL,–,–,–,–
cyclopropyl-methoxycarbonyl metomidate [CPMM],"3,310 ± 740 ng/ml",15 ± 12 ng/mL,103 ± 56 ng/mL,81 ± 27 ng/mL,"3,310 ± 740 ng/ml",1.61 ± 0.642 h
